# Source: PMC4336329 (PLoS ONE, 2015)
# The whole screen tested about 310,000 compounds, of which about 14,000 (4.5%) showed an effect of 50% or more. The effect is printed as a negative number. The list shows a part of the results.
# Molecular target: human ether-à-go-go-related gene (hERG) potassium channel (human, UniProt Q12809)
# Experiment: primary screen, population patch clamp on CHO cells stably expressing hERG
# 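Note: peak tail current of the secondary pulse compared with the same well before compound.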
# Chain of human ether-à-go-go-related gene (hERG) potassium channel (Q12809 whole entry, looked up): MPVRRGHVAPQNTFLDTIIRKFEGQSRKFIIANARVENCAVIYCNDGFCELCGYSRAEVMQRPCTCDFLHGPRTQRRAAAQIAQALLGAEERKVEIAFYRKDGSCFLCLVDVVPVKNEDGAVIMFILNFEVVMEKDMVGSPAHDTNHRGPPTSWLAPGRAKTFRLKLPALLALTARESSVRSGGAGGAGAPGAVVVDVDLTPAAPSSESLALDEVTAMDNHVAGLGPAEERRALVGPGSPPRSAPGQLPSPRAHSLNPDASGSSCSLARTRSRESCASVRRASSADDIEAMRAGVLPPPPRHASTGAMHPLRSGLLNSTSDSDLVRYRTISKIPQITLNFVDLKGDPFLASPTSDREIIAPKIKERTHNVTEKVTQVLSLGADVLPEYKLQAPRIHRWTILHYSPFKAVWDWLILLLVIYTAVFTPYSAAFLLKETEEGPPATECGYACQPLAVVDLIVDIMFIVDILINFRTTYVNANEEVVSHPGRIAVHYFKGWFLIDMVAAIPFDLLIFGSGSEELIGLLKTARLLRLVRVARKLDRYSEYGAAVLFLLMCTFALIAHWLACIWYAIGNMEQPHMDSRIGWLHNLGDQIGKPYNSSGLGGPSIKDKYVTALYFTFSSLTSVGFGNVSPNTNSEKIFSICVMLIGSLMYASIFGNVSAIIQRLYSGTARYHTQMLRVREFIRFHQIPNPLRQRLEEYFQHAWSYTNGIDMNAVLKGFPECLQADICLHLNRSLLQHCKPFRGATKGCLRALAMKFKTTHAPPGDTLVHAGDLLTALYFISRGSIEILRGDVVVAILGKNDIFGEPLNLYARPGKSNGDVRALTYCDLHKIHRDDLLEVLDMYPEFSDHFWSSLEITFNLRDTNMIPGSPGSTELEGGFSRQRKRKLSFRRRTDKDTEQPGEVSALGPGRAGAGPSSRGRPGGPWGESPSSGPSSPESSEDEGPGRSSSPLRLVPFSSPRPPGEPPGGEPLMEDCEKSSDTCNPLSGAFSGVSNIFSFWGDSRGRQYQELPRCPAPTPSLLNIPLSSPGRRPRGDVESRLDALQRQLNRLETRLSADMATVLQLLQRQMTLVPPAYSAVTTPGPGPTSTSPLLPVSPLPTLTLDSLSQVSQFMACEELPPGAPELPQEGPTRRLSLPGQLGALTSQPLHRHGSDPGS
row,SMILES,"hERG current change (%, negative = inhibition) at 10uM [%]"
1,CCn1ncc(C2=NOC(C(=O)Nc3ccc4c(c3)OCO4)C2)c1C (stereo not drawn),1.44
2,Cc1cc(C)nc(Nc2nc(-c3ccccc3)cs2)n1,16.4
3,Nc1ncnc2c1ncn2[C@H]1CC[C@@H](CO)O1,15.1
4,CC(C)c1cc(=O)[nH]c(N2CCN(Cc3ccc4c(c3)OCO4)CC2)n1,-0.0862
5,Cc1ccc(S(=O)(=O)NCCCOC(=O)Nc2ccncc2)cc1,-13.1
6,COc1ccc(-n2c(-c3cnccn3)n[nH]c2=S)cc1,15.7
7,C/C(N)=C(/C#N)C(=O)COC(=O)CC1CCCC1,-2.15
8,CCCC1=C([O-])C2N=CC=CC2=[N+](c2ccccn2)C1=O (stereo not drawn),2.16
9,CCN(C(=O)Cn1nc(C)n2c(cc3cc(C)ccc32)c1=O)c1ccccc1,-41.2
10,CN(Cc1ccccc1)C(=O)c1ccc(Cl)c([N+](=O)[O-])c1,-53.5
11,Cc1ccc(S(=O)(=O)CCC(=O)OCc2ccc(S(=O)(=O)C(C)C)cc2)cc1,-28.1
12,Cc1cc(=O)n2[nH]c(-c3ccco3)nc2n1,13.9
13,O=C(Nc1nc2ccccc2[nH]1)c1ccccc1[N+](=O)[O-],19.5
14,CCc1ccc(C(=O)NC(CCSC)C(=O)OC)cc1 (stereo not drawn),11.3
15,CC1(C)Cc2c(sc(/N=C/N3CCCCCC3)c2C#N)C(C)(C)N1,0.934
16,C=CCSc1nc(O)c(CC)c(=O)n1C(C)CC (stereo not drawn),-11.3
17,O=C(Cc1cccc2ccccc12)Nc1ccc(OC(F)F)c(Cl)c1,4.11
18,N#CNC(=Nc1cccc(C(F)(F)F)c1)SCc1ccc(C(=O)O)cc1,2.03
19,CCOc1nc(NCCC2=CCCCC2)nc(N2CCOCC2)n1,-5.86

row,SMILES,"hERG current change (%, negative = inhibition) at 10uM [%]"
1,O=[N+]([O-])c1ccc(O)c(/C=N\N=C2c3ccccc3-c3ccccc32)c1,4.16
2,CCOC(=O)C[n+]1c(C)sc2ccc(OC)cc21.[Br-],15.4
3,Cc1ccc(N(C(=O)c2csnn2)C(C(=O)NC2CCCC2)c2cccnc2)cc1 (stereo not drawn),-5.55
4,COc1cccc(-c2cc(C(=O)NCC3CCCO3)c3cc(Br)cc(C)c3n2)c1 (stereo not drawn),18.3
5,CCC(=O)Nc1nc(C)cc(SCC(=O)OC)n1,5.53
6,CC(=O)c1ccc(N2CCN(S(=O)(=O)c3ccc4c(c3)CC(=O)N4)CC2)cc1,-1.11
7,O=C(c1ccco1)N1N=C(c2cccs2)CC1c1ccccc1O (stereo not drawn),14.4
8,COc1cc(OC)cc(C(=O)n2cnnc2N)c1,-4.77
9,Cc1ccccc1NC(=O)c1sc2nc(N3CCOCC3)c3c(c2c1N)CCCC3,13
10,O=S(=O)(N1CCOCC1)N1CCCN(S(=O)(=O)N2CCOCC2)CC1,5.76
11,O=C(CSc1nc2c(c(=O)[nH]1)CCC2)Nc1cccc(Cl)c1,4.27
12,Nc1nn(-c2ccccc2)c(N)c1N=Nc1ccc2c(c1)OCO2,-15.1
13,O=C(Nc1nc2ccc(F)cc2s1)C1CC(=O)N(c2ccc3c(c2)OCCO3)C1 (stereo not drawn),-8.48
14,CCN(CC)S(=O)(=O)c1ccc(OC)c(NC(=O)OCc2ccccc2)c1,-13.4
15,CSCC[C@H](N)C(=O)N1CCC(C(=O)N[C@@H](Cc2c[nH]c3ccccc23)C(=O)O)CC1,-0.871
16,O=c1c2ccccc2sc2ccc(C#CC3(O)CCCCC3)cc12,6.27
17,CC1(NC(=O)Cc2csc(-c3cccc(Cl)c3)n2)CCS(=O)(=O)C1 (stereo not drawn),13.9
18,Cc1ccc(S(=O)(=O)NCCCCCC(=O)NCCc2ccccc2)cc1,11.1
19,O=C(NCc1ccccc1)c1cccc(COc2cccc(Cl)c2)c1,-1.36

row,SMILES,"hERG current change (%, negative = inhibition) at 10uM [%]"
1,CCOc1ccc(NC(=S)NN2C(C)CCCC2C)cc1 (stereo not drawn),6.62
2,O=S(=O)(Nc1ccc(O)cc1)c1cccc2cccnc12,10.2
3,CCCc1nc2ccc(NC(=O)NCCC(=O)OCC)cc2c(=O)n1Cc1cccc(Cl)c1,-7.18
4,COC(=O)c1ccc(/C=C2/SC(=S)N(CCCC(=O)Nc3ccc(O)cc3)C2=O)cc1,18.1
5,Cn1c(SCC(=O)Nc2ccccc2F)nnc1-c1cccs1,-24.2
6,Cn1nnnc1-c1cc(Cl)cc(Cl)c1,12
7,COc1cccc(/C=N/NC(=O)c2c(-c3ccccc3)noc2C)c1,5.76
8,COCC(=O)N1CCCC(C(=O)c2ccc(-c3ccccc3)c(F)c2)C1 (stereo not drawn),-23.3
9,COc1ccc(Nc2nnc(C)c3ccccc23)cc1,-18.1
10,Cc1nc(C(F)(F)F)ccc1C(=O)NCC(O)c1ccccc1 (stereo not drawn),8.53
11,COc1ccccc1Cc1noc(C(C)(C)NC(=O)c2ccccc2)n1,-1.62
12,CC(C)(C)c1ccc(/C=N/n2cnnc2)cc1,4.95
13,COc1ccc(Cl)cc1NC(=O)COC(=O)C(CC(C)C)N1C(=O)C2CC=CCC2C1=O (stereo not drawn),3.88
14,Cc1sc(NC(=O)Cc2ccc3c(c2)OCO3)nc1-c1ccc2c(c1)CCN2C(=O)c1ccc(F)cc1,4.78
15,CC1CCC(C(C)C)C(OCC(O)CN2CCCC(C)C2)C1.Cl (stereo not drawn),-31.6
16,CCOc1ccccc1C(=O)N1CCN=C1SCc1cccnc1,-2.67
17,Cc1ccc(OCC(=O)Nc2ccon2)c([N+](=O)[O-])c1,11.9
18,NS(=O)(=O)c1ccc(CCNC(=O)CC(NC(=O)c2ccccc2Cl)c2ccccc2)cc1 (stereo not drawn),12.6
19,COc1ccc(CN2C3CCCC2CC(NC(=O)/C=C/c2ccccc2)C3)cc1 (stereo not drawn),-88
